The values that follow come from a collection of fitness landscapes (doi:10.1126/science.1257360).

Some of the results follow.

B1: PhoQ; a variant is named by its letters at X, in order, P23837 (parent)
chain: MKKLLRLFFPLSLRVRFLLATAAVVLVLSLAYGMVALIGYSVSFDKTTFRLLRGESNLFYTLAKWENNKLHVELPENIDKQSPTMTLIYDENGQLLWAQRDVPWLMKMIQPDWLKSNGFHEIEADVNDTSLLLSGDHSIQQQLQEVREDDDDAEMTHSVAVNVYPATSRMPKLTIVVVDTIPVELKSSYMVWSWFIYVLSANLLLVIPLLWVAAWWSLRPIEALAKEVRELEEHNRELLNPATTRELTSLVRNLNRLLKSERERYDKYRTTLTDLTHSLKTPLXXLQXXLRSLRSEKMSVSDAEPVMLEQISRISQQIGYYLHRASMRGGTLLSRELHPVAPLLDNLTSALNKVYQRKGVNISLDISPEISFVGEQNDFVEVMGNVLDNACKYCLEFVEISARQTDEHLYIVVEDDGPGIPLSKREVIFDRGQRVDTLRPGQGVGLAVAREITEQYEGKIVAGESMLGGARMEVIFGRQHSAPKDE

In the assay the parent is B1. The experiment in a line: enrichment ratio after two sorts for PhoP signalling (ratio (wild type AVST 3.29)); higher = more functional. The note with it: with PhoP (E. coli).
Consider LMMN, for which the enrichment ratio was not above 0.25.
The figure for GHDP is not above 0.25; for VINH it is not above 0.25.
The figure for FWLQ is not above 0.25.
To AFCW belongs not above 0.25.
MQLW: the enrichment ratio is not above 0.25.
To HALI belongs 12.2.
To FMDM belongs not above 0.25; to NAIH, not above 0.25; to QNYN, not above 0.25.
Consider EPGR, for which the enrichment ratio was not above 0.25.
To PRPC belongs not above 0.25; to SPSP, not above 0.25; to TKDP, not above 0.25.
For the variant PEWY, the enrichment ratio was not above 0.25.
For the variant RNTE, the enrichment ratio is not above 0.25.
In the case of FKMP, the enrichment ratio was not above 0.25.
Take DKTL: the enrichment ratio was not above 0.25.
The figure for EAEG is not above 0.25.
On to CFMC, for which the enrichment ratio was not above 0.25.
Take TDKH: the enrichment ratio was not above 0.25.
To LKII belongs not above 0.25; to HNPK, not above 0.25; to DMPD, not above 0.25.
To NLHF belongs not above 0.25.
To RENW belongs not above 0.25.
Consider PYCV, for which the enrichment ratio was not above 0.25.
Regarding WMRY, the enrichment ratio was not above 0.25.
The figure for PVPW is not above 0.25; for QCLE it is not above 0.25; for WFAV it is not above 0.25.
To SEGR belongs not above 0.25.
To FPRS belongs not above 0.25; to EYPQ, not above 0.25.
As for ISMQ, the enrichment ratio was found to be 4.94.
Turning to MTVY, the enrichment ratio was not above 0.25.
To IGRR belongs not above 0.25.
To PIGQ belongs not above 0.25; to PRNL, not above 0.25; to GQSR, not above 0.25.
To GLAA belongs not above 0.25; to DCRL, not above 0.25.
Turning to HPAC, the enrichment ratio is not above 0.25.
MHMK: the enrichment ratio was not above 0.25.
The figure for LFHP is not above 0.25; for EMKV it is not above 0.25.
For LSIN, the enrichment ratio is not above 0.25.
The figure for YHMW is not above 0.25.
As for RMFD, the enrichment ratio was not above 0.25.
To RPEF belongs not above 0.25; to INAD, not above 0.25; to LRKN, not above 0.25.
To NRQS belongs not above 0.25.
As for PTAN, the enrichment ratio was not above 0.25.
The figure for RYSH is not above 0.25.
With NHEW, the enrichment ratio was not above 0.25.
Take FRMV: the enrichment ratio was not above 0.25.
The figure for VIWR is not above 0.25.
With TAMT, the enrichment ratio worked out at 11.1.
For the variant MIVW, the enrichment ratio is not above 0.25.
The figure for SSDL is not above 0.25; for AKDM it is not above 0.25.
As to WMGM, the enrichment ratio is not above 0.25.
Take KGQY: the enrichment ratio is not above 0.25.
As for TDWL, the enrichment ratio is not above 0.25.
To TIGL belongs 6.36.
The figure for YVYR is not above 0.25; for NKMR it is not above 0.25; for NPWA it is not above 0.25.
The figure for VVEH is not above 0.25; for QDWT it is not above 0.25.
In the case of FNLE, the enrichment ratio was not above 0.25.
To IMFE belongs 2.6; to RSDT, not above 0.25.
The figure for TWAG is not above 0.25; for NCGY it is not above 0.25; for GKCQ it is not above 0.25.
To EDWA belongs not above 0.25; to ARIQ, not above 0.25.
Consider TRVA, for which the enrichment ratio is not above 0.25.
To RSAD belongs not above 0.25.
The figure for WYFY is not above 0.25.
The figure for EVWK is not above 0.25.
Turning to SVPM, the enrichment ratio was found to be 7.47.
With AMAM, the enrichment ratio worked out at 7.92.
To HSVS belongs not above 0.25.
To NFMQ belongs not above 0.25.
As for QNQQ, the enrichment ratio is not above 0.25.
For the variant RMAN, the enrichment ratio is not above 0.25.
Consider YHMN, for which the enrichment ratio was not above 0.25.
The figure for CFNN is not above 0.25; for MFMF it is not above 0.25.
To IGEG belongs not above 0.25; to YPLS, not above 0.25.
The figure for YWPM is not above 0.25; for MILM it is 3.95.
In the case of IHGL, the enrichment ratio was not above 0.25.
The figure for WWWF is not above 0.25.
The figure for CFGC is not above 0.25.
Take HCEI: the enrichment ratio was not above 0.25.
With EATS, the enrichment ratio is not above 0.25.
Regarding QFDQ, the enrichment ratio is not above 0.25.
The figure for SVSH is 10.5.
To VSMK belongs not above 0.25.
Take DFWE: the enrichment ratio was not above 0.25.
On to VYVM, for which the enrichment ratio is not above 0.25.
Take ENGI: the enrichment ratio was not above 0.25.
ICIS: the enrichment ratio was not above 0.25.
Turning to PVSK, the enrichment ratio is not above 0.25.
VGMA: the enrichment ratio is not above 0.25.
In the case of YEHG, the enrichment ratio was not above 0.25.
As to AWLQ, the enrichment ratio is not above 0.25.
The figure for KKAL is not above 0.25; for LQIK it is not above 0.25; for HITP it is not above 0.25.
Take FISD: the enrichment ratio is not above 0.25.
To MFGM belongs not above 0.25; to GYWS, not above 0.25; to VNHP, not above 0.25.
For RLRW, the enrichment ratio is not above 0.25.
Take HYDQ: the enrichment ratio is not above 0.25.
The figure for NKRF is not above 0.25; for LFPE it is not above 0.25.
The figure for FTGH is 1.49.
On to GVYR, for which the enrichment ratio was not above 0.25.
Take MNTF: the enrichment ratio is not above 0.25.
The figure for DTVT is not above 0.25; for YIFG it is not above 0.25; for GQVF it is not above 0.25.
As for YWTL, the enrichment ratio was not above 0.25.
For IQQS, the enrichment ratio is not above 0.25.
Turning to TEAK, the enrichment ratio came out at 2.31.
The figure for PSCH is not above 0.25; for QDFY it is not above 0.25.
To IHRG belongs not above 0.25.
To LRTP belongs not above 0.25; to VFEI, not above 0.25.
For MEMH, the enrichment ratio is not above 0.25.
For TTMC, the enrichment ratio stood at 6.54.
KYYS: the enrichment ratio is not above 0.25.
To HMAS belongs not above 0.25; to TQQH, not above 0.25; to HFLV, not above 0.25.
The figure for VHCV is not above 0.25.
To LRSM belongs not above 0.25; to WSSP, not above 0.25.
In the case of RFMI, the enrichment ratio was not above 0.25.
With TEFM, the enrichment ratio is 3.29.
For FDGS, the enrichment ratio was not above 0.25.
Turning to FNCM, the enrichment ratio amounted to 5.18.
As for QEIK, the enrichment ratio was not above 0.25.
In the case of KYVN, the enrichment ratio is not above 0.25.
On to TPAE, for which the enrichment ratio is not above 0.25.
